According to article PMC11995724, “Antibiotic target discovery by integrated phenotypic and activity-based profiling of electrophilic fragments” (Cell chemical biology, 2025):
Hit rate of the full screen: of about 3,200 compounds, about 110 (3.4%) showed an effect of 50% or more. This is one part of the list.

system: T1, V. cholerae SAD30; parameters: species or system S. aureus MSSA476 (TSB) or V. cholerae SAD30 (LB); 384-well bacterial growth screen at 25 uM, OD600 relative to DMSO control; settings: relative growth, OD600, LB; 25 µM; inhibitor
T1 construct: SAD30

| SMILES | % of control remaining [%] |
| --- | --- |
| C=CC(=O)N1CCCC1Cn1c(C)nc2ccccc21 (stereo not shown) [1-J05, 1-{2-[(2-methyl-1H-1,3-benzodiazol-1-yl)methyl]pyrrolidin-1-yl}prop-2-en-1-one] | 88.9387 |
| Cc1ccc(NC(=O)C(C)Cl)cc1 (stereo not shown) [4-J15, 2-chloro-N-(4-methylphenyl)propanamide] | 98.3394 |
| CC(Cl)C(=O)N1CCCc2c1ccc1c2ncn1C (stereo not shown) [6-B19, 2-chloro-1-{3-methyl-3H,6H,7H,8H,9H-imidazo[4,5-f]quinolin-6-yl}propan-1-one] | 96.6158 |
| CC(Cl)C(=O)NC1CC(=O)N(Cc2ccccc2C(F)(F)F)C1 (stereo not shown) [6-J19, 2-chloro-N-(5-oxo-1-{[2-(trifluoromethyl)phenyl]methyl}pyrrolidin-3-yl)propanamide] | 91.4589 |
| CC(Cl)C(=O)N1CCc2oc(-c3ccccc3)cc2C1 (stereo not shown) [6-B21, 2-chloro-1-{2-phenyl-4H,5H,6H,7H-furo[3,2-c]pyridin-5-yl}propan-1-one] | 74.4715 |
| CC(Cl)C(=O)N1CCN(C(=O)c2cccc(OC(F)F)c2)CC1 (stereo not shown) [5-F17, 2-chloro-1-{4-[3-(difluoromethoxy)benzoyl]piperazin-1-yl}propan-1-one] | 93.643 |
| Cc1c(Cl)cccc1NC(=O)C(C)Cl (stereo not shown) [6-I10, 2-chloro-N-(3-chloro-2-methylphenyl)propanamide] | 83.2686 |
| CN1C(=O)c2ccccc2C1CNC(=O)CCl (stereo not shown) [7-B10, 2-chloro-N-[(2-methyl-3-oxo-2,3-dihydro-1H-isoindol-1-yl)methyl]acetamide] | 88.5511 |
| O=C(CCl)NC(Cc1ccccc1)c1ccccc1 (stereo not shown) [4-L11, 2-chloro-N-(1,2-diphenylethyl)acetamide] | 95.579 |
| C=CC(=O)N(C)CC(=O)Nc1ccc(N2CCC(O)CC2)cc1 [3-P06, N-({[4-(4-hydroxypiperidin-1-yl)phenyl]carbamoyl}methyl)-N-methylprop-2-enamide] | 111.851 |
| C=CC(=O)NCc1ccc(C(=O)N2CCC(NC(C)=O)CC2)cc1 [2-A12, N-{[4-(4-acetamidopiperidine-1-carbonyl)phenyl]methyl}prop-2-enamide] | 97.2981 |
| Cc1cccc(C=C(C#N)C(=O)Nc2ccc(C(=O)O)cc2)c1 [8-M21, 4-[2-cyano-3-(3-methylphenyl)prop-2-enamido]benzoic acid] | 75.7988 |
| C=CC(=O)NCc1cnc2ccsc2c1 [2-D11, N-({thieno[3,2-b]pyridin-6-yl}methyl)prop-2-enamide] | 86.4904 |
| C=CC(=O)N1CSCC1C(=O)N(C)C (stereo not shown) [1-G03, N,N-dimethyl-3-(prop-2-enoyl)-1,3-thiazolidine-4-carboxamide] | 105.232 |
| CC(Cl)C(=O)Nc1cccc([N+](=O)[O-])c1 (stereo not shown) [6-E08, 2-chloro-N-(3-nitrophenyl)propanamide] | 88.7288 |
| COc1ccc(OC)c(N2C(=O)C=CC2=O)c1 [10-N15, 1-(2,5-dimethoxyphenyl)-2,5-dihydro-1H-pyrrole-2,5-dione] | 24.7808 |

| SMILES | % of control remaining [%] |
| --- | --- |
| Cc1noc(C)c1CN(C(=O)CCl)C1CC1 [7-B05, 2-chloro-N-cyclopropyl-N-[(3,5-dimethyl-1,2-oxazol-4-yl)methyl]acetamide] | 89.4763 |
| O=C(CCl)Nc1ccc(-c2ccccc2)cc1 [4-N10, N-{[1,1'-biphenyl]-4-yl}-2-chloroacetamide] | 110.244 |
| CC(Cl)C(=O)Nc1cc(Cl)c(Cl)cc1Cl (stereo not shown) [4-N13, 2-chloro-N-(2,4,5-trichlorophenyl)propanamide] | 94.8889 |
| CCOC(=O)c1[nH]c(C)c(C(=O)CCl)c1C [10-A10, ethyl 4-(2-chloroacetyl)-3,5-dimethyl-1H-pyrrole-2-carboxylate] | 100.058 |
| O=C(CCl)Nc1ccc(S(=O)(=O)N2CCCCC2)cc1 [4-H06, 2-chloro-N-[4-(piperidine-1-sulfonyl)phenyl]acetamide] | 105.758 |
| N#CC(=Cc1ccc(-c2ccccc2Cl)o1)C(=O)N1CCCCC1 [8-F20, 3-[5-(2-chlorophenyl)furan-2-yl]-2-(piperidine-1-carbonyl)prop-2-enenitrile] | 64.378 |
| C=CC(=O)N1CCCC2(CCCCO2)C1 (stereo not shown) [3-O09, 1-{1-oxa-8-azaspiro[5.5]undecan-8-yl}prop-2-en-1-one] | 103.029 |
| O=[N+]([O-])c1ccccc1S(=O)(=O)N1CCSSCC1 [10-N09, 5-(2-nitrobenzenesulfonyl)-1,2,5-dithiazepane] | 91.7982 |
| C=CC(=O)N1CCC(c2nc(C3CCC3)no2)CC1 [2-O04, 1-[4-(3-cyclobutyl-1,2,4-oxadiazol-5-yl)piperidin-1-yl]prop-2-en-1-one] | 93.2838 |
| C=CC(=O)NCCC(=O)N1CCSC(C)(C)C1 [3-G18, N-[3-(2,2-dimethylthiomorpholin-4-yl)-3-oxopropyl]prop-2-enamide] | 90.3253 |
| C=CC(=O)N1CCCC(CNC(C)=O)C1 (stereo not shown) [3-E15, N-{[1-(prop-2-enoyl)piperidin-3-yl]methyl}acetamide] | 93.8541 |
| C=CC(=O)Nc1ccc(-c2nc3cc(C)ccc3o2)cc1 [1-D20, N-[4-(5-methyl-1,3-benzoxazol-2-yl)phenyl]prop-2-enamide] | 92.738 |
| C=CC(=O)NCc1nc2cc(F)ccc2o1 [3-N20, N-[(5-fluoro-1,3-benzoxazol-2-yl)methyl]prop-2-enamide] | 99.853 |
| O=C(CCl)Nc1ccccc1Cc1ccccc1 [4-N22, N-(2-benzylphenyl)-2-chloroacetamide] | 109.726 |
| N#CC(=Cc1ccc(O)cc1)C(=O)Nc1ccc(Cl)cc1Cl [9-G22, 2-cyano-N-(2,4-dichlorophenyl)-3-(4-hydroxyphenyl)prop-2-enamide] | 96.0571 |
